In all, about 410,000 compounds went through this assay and about 6,400 (1.6%) were called active. This list was built around the results that the source calls inconclusive (neither active nor inactive); the mix of calls is not that of the screen. The call rests on the fitted dose curve; in most records, active means well fitted inhibition curve with a large enough effect; inconclusive means small, poorly fitted or top-dose-only effect; inactive means no such curve, though single readings can be large or run the other way. Potencies of inconclusive entries are left out as doubtful fits.
Target: Glucagon-like peptide 1 receptor (Homo sapiens) (UniProt P43220)
Sequence of UniProt P43220 (P43220 whole entry, looked up): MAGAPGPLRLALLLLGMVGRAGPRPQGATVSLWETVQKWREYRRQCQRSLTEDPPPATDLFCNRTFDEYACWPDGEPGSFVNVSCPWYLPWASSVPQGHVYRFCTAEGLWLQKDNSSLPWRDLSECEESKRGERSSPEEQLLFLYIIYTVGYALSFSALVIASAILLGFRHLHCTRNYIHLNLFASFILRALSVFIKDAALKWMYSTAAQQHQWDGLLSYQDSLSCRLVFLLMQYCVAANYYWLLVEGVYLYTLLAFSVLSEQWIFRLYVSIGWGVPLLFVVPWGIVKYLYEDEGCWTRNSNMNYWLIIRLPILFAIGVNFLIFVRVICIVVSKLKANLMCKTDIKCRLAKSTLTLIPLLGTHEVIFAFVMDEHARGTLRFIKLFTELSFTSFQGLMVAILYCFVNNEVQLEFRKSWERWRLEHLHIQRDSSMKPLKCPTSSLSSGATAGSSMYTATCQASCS
Assay: qHTS of GLP-1 Receptor Inverse Agonists (Inhibition Mode); further: nearly all actives have a fitted effect of over 55% in size
Details: HEK293 GLP-1R CRE-luciferase, luminescence, 24 h, GLP-1R form is constitutively active; activity change, negative = inhibition: at 38.3 µM (top of the series) unless noted
In short: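 Constitutively active GLP-1R drives a cAMP-responsive luciferase in stably transfected HEK293 cells; test compounds are added after overnight (12 h) attachment and left 24 hr, and signal loss in luminescence marks inhibition.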
On the % scale 0 is the no-effect control and ±100 the full control effect; potency means the concentration at half of the fitted maximal effect; tags describe the fitted curve by direction and shape.

Row | Compound | Potency | activity change, negative = inhibition
1 | O=C(CCCC(=O)Nc1ccccc1Br)N/N=C/c1c(F)cccc1Cl | inconclusive [inhibitor, single point] | –
2 | Cc1ccc(S(=O)(=O)NC(CC(=O)n2nc(C)cc2C)c2ccccc2)cc1 (configuration not stated) | inconclusive [inhibitor, partial curve] | –
3 | Cc1ccc2nc(NCc3ccccc3)[nH]c2c1 | inconclusive [inhibitor, partial curve, poor fit] | –
4 | COc1ccccc1NC(=O)c1ccc(NC(=O)CN(C)Cc2ccccc2F)cc1 | inconclusive [inhibitor, single point] | –
5 | COc1ccc2c(c1)CC[C@@H]1[C@@H]2CC[C@]2(C)[C@@H](C(C)=O)C[C@@H]12 | inconclusive [inhibitor, partial curve, poor fit] | –
6 | COCCN1Cc2cccc(C(=O)Nc3cccc(C)c3C)c2C1=O | inconclusive [inhibitor, partial curve] | –
7 | CC1=C(C(=O)N2CCOCC2)CC(CC(=O)NCCCCc2ccccc2)C(=O)N1Cc1ccc(C(C)(C)C)cc1 (configuration not stated) | inconclusive [inhibitor, partial curve, poor fit] | –
8 | O=C(c1cc(-c2ccc(Cl)cc2)nc2ccccc12)N1CCC1 | inconclusive [inhibitor, partial curve, poor fit] | –
9 | CC1CCN(CC(=O)n2c3c(c4ccccc42)CCCC3)CC1 | inconclusive [inhibitor, single point] | –
10 | CCCc1ccc(S(=O)(=O)N2CCN(C(=O)c3cc(C)on3)CC2)cc1 | inconclusive [inhibitor, full curve, poor fit] | –
11 | Cc1cc(Nc2ccccc2F)n2nc(C)nc2n1 | – | inactive: 41%
12 | C#CCSc1nc(-c2cccs2)ccc1C#N | – | inactive: 21.5%
13 | Cc1noc(C)c1S(=O)(=O)Nc1ccc(C(=O)Nc2ccc(C(C)C)cc2)cc1 | inconclusive [inhibitor, partial curve, poor fit] | –
14 | CCOC(=O)c1ccc(NC(=O)CC2Nc3cccc4cccc(c34)NC2=O)cc1 (configuration not stated) | inconclusive [inhibitor, single point] | –
15 | COc1cccc(Nc2nnc(SCC3CCCCO3)s2)c1 (configuration not stated) | inconclusive [inhibitor, single point] | –
16 | CCOc1ccccc1NC(=O)c1csc(C)c1C | inconclusive [inhibitor, partial curve, poor fit] | –
17 | S=C(NC1CCCCC1)N1CCc2ccccc2C1 | inconclusive [inhibitor, partial curve, poor fit] | –
18 | O=C(C[C@H]1C(=O)N(Cc2ccccc2)C[C@@H]1Cc1ccccc1)Nc1ccc(Br)cc1 | inconclusive [inhibitor, partial curve, poor fit] | –
19 | O=C(NC1CCCCCCC1)c1ccc(F)cc1 | inconclusive [inhibitor, single point] | –
20 | CCn1c(N2CCN(S(=O)(=O)c3ccccc3C(F)(F)F)CC2)nc2ccccc21 | inconclusive [inhibitor, single point] | –
21 | FC(F)(F)c1ccc(Cl)c(NC(=S)NC2CC2)c1 | – | inactive: 4.4%

Row | Compound | Potency | activity change, negative = inhibition
22 | CCc1nc(Nc2ccccc2OC)c2oc3ccccc3c2n1 | inconclusive [inhibitor, single point] | –
23 | COc1cccc(NC(=O)CN2CCN(c3ccccc3F)CC2)c1 | inconclusive [inhibitor, partial curve, poor fit] | –
24 | CCCN(CC1CC1)C(=O)CCc1nnc(C(OC)c2ccccc2)o1 (configuration not stated) | – | inactive: -16.7%
25 | Cc1c(CCOC(=O)CC23CC4CC(CC(C4)C2)C3)sc[n+]1CC(=O)c1ccccc1 | inconclusive [inhibitor, single point] | –
26 | COc1ccnc(Oc2ccc(F)cc2)c1C(=O)N/C=N/OCc1ccc(F)cc1Cl | inconclusive [inhibitor, single point] | –
27 | Nc1nnc(CC(=O)N/N=C/c2cccc([N+](=O)[O-])c2)s1 | – | inactive: -16.8%
28 | COc1cccc(NS(=O)(=O)c2ccc3[nH]c4c(c3c2)CCCCCC4)c1 | inconclusive [inhibitor, single point] | –
29 | CC(C)C#Cc1ccc2c(c1)O[C@@H](CN(C)C(=O)c1cnccn1)[C@@H](C)CN([C@@H](C)CO)S2(=O)=O | – | inactive: 16.3%
30 | CC(=O)c1ccc(N=Nc2ccc(N)cc2)cc1 | inconclusive [inhibitor, partial curve, poor fit] | –
31 | COc1ccc(NC(=O)C(NC(=O)Cc2cccs2)c2ccc(OC)cc2)cc1 (configuration not stated) | – | inactive: 1.74%
32 | COc1cccc(N=C2SC(CC(=O)Nc3ccccc3)C(=O)N2Cc2ccccn2)c1 (configuration not stated) | inconclusive [inhibitor, partial curve, poor fit] | –
33 | CCCCc1cc(O)c(CCCC)c(O)c1 | inconclusive [inhibitor, full curve] | –
34 | O=C(CNS(=O)(=O)c1cccc(Br)c1)NCCCc1ccccc1 | inconclusive [inhibitor, partial curve, poor fit] | –
35 | COc1ccccc1NC(=O)CN(c1ccc([N+](=O)[O-])cc1)S(=O)(=O)c1ccccc1 | inconclusive [inhibitor, partial curve, poor fit] | –
36 | O=C(c1cc(Cl)nc2ccccc12)N1CCN(Cc2ccc3c(c2)OCO3)CC1 | inconclusive [inhibitor, partial curve, poor fit] | –
37 | O=C(CCS(=O)(=O)c1nc(-c2cccs2)cc(C(F)(F)F)n1)Nc1ccc(Br)cc1 | inconclusive [inhibitor, partial curve, poor fit] | –
38 | CC(C)(C)c1ccc(C2(C)NC(=O)N(CC(=O)Nc3ccc4c(c3)OCO4)C2=O)cc1 (configuration not stated) | inconclusive [inhibitor, single point] | –
39 | COc1ccccc1-c1cccc(-c2nc(C(=O)Nc3nccs3)cc3c2[C@H](CCO)N(C(C)=O)C3)c1 | inconclusive [inhibitor, single point] | –
40 | CSCCC(NC(=O)COc1ccccc1)C(=O)NCCOc1ccc(C)cc1 (configuration not stated) | inconclusive [inhibitor, single point] | –
41 | COc1ccc2sc(NC(C)=O)nc2c1 | – | inactive: -6.46%
42 | COc1ccc(NS(=O)(=O)c2cc(N/C(=N\S(=O)(=O)c3ccccc3)c3ccc(F)cc3)ccc2Cl)cc1 | inconclusive [inhibitor, partial curve, poor fit] | –

Row | Compound | Potency | activity change, negative = inhibition
43 | Nc1nc(-c2ccccc2Cl)cs1 | – | inactive: -13.3%
44 | CC(C)C(NS(=O)(=O)c1cccc2nsnc12)C(=O)NCCC1=CCCCC1 (configuration not stated) | inconclusive [inhibitor, partial curve, poor fit] | –
45 | Cc1cc2cc(CCNS(=O)(=O)c3ccc(Br)cc3)c(=O)[nH]c2cc1C | inconclusive [inhibitor, single point] | –
46 | O=C(O)c1cc(-n2nnnc2SCc2ccc([N+](=O)[O-])cc2)ccc1Cl | – | inactive: 2.02%
47 | CCN(CC)CCNc1ccc(CO)c2oc3ccccc3c(=O)c12 | inconclusive [inhibitor, single point] | –
48 | CCc1ccc(/C=C/c2c([N+](=O)[O-])c(=O)n(C)c(=O)n2C)cc1 | inconclusive [inhibitor, full curve] | –
49 | CCOC(=O)c1c(C2CC2)csc1NC(=O)CSCc1c(C)noc1C | inconclusive [inhibitor, full curve, poor fit] | –
50 | CSc1nn(Cc2ccccc2C)c(NC(C)=O)c1S(=O)(=O)c1ccc(C)cc1 | inconclusive [inhibitor, single point] | –
51 | CCCCCC1=C(C(=O)OC)C(C(=O)OCC)N(S(=O)(=O)C(F)(F)F)c2ccccc21 (configuration not stated) | inconclusive [inhibitor, single point] | –
52 | O=C(CNCc1cccs1)Nc1ccc(N2CCCCCC2)cc1 | inconclusive [inhibitor, partial curve] | –
53 | CNC(=O)CCc1[nH]c2ccccc2c1Sc1ccccc1 | inconclusive [inhibitor, partial curve, poor fit] | –
54 | CCOc1ccc(C)cc1S(=O)(=O)n1cnc2ccccc21 | inconclusive [inhibitor, full curve, poor fit] | –
55 | Cc1nn(C)cc1CNC(=O)CCC(=O)O | inconclusive [inhibitor, full curve, poor fit] | –
56 | CC1=NN(c2ccc(C)c(C)c2)C(=O)/C1=C\C=C\c1ccc([N+](=O)[O-])o1 | inconclusive [inhibitor, partial curve, poor fit] | –
57 | CC1(C)CCC(=NNC(N)=S)CC1 | inconclusive [inhibitor, single point] | –
58 | CCOCCCNC1=C(Cl)C(=O)c2ccccc2C1=O | inconclusive [inhibitor, single point] | –
59 | Cc1ccc(S(=O)(=O)N2CCN(C(C(=O)Nc3ccc(F)cc3)c3ccccc3)CC2)cc1 (configuration not stated) | inconclusive [inhibitor, partial curve, poor fit] | –
60 | COc1ccc(-c2cn(-c3ccc(Br)cc3)c3[n+]2CCS3)cc1 | inconclusive [inhibitor, partial curve, poor fit] | –
61 | COc1cc(C(=O)NCC(c2cccs2)N2CCOCC2)ccc1OCc1ccccc1 (configuration not stated) | inconclusive [inhibitor, single point] | –
62 | Cc1ccc(NC(=O)c2cc(-c3cccs3)nc3ccccc23)nc1 | inconclusive [inhibitor, single point] | –

— PubChem BioAssay AID624417 (National Center for Advancing Translational Sciences (NCATS), 2012)
